Among all 310,000 compounds or so, about 2,200 (0.71%) showed an effect of 50% or more. Effects have a minus sign here. The list shows a part of the results.
Molecular target: human ether-à-go-go-related gene (hERG) potassium channel (human, UniProt Q12809)
Test: primary screen, population patch clamp on CHO cells stably expressing hERG

Chain of human ether-à-go-go-related gene (hERG) potassium channel (Q12809 whole entry, looked up): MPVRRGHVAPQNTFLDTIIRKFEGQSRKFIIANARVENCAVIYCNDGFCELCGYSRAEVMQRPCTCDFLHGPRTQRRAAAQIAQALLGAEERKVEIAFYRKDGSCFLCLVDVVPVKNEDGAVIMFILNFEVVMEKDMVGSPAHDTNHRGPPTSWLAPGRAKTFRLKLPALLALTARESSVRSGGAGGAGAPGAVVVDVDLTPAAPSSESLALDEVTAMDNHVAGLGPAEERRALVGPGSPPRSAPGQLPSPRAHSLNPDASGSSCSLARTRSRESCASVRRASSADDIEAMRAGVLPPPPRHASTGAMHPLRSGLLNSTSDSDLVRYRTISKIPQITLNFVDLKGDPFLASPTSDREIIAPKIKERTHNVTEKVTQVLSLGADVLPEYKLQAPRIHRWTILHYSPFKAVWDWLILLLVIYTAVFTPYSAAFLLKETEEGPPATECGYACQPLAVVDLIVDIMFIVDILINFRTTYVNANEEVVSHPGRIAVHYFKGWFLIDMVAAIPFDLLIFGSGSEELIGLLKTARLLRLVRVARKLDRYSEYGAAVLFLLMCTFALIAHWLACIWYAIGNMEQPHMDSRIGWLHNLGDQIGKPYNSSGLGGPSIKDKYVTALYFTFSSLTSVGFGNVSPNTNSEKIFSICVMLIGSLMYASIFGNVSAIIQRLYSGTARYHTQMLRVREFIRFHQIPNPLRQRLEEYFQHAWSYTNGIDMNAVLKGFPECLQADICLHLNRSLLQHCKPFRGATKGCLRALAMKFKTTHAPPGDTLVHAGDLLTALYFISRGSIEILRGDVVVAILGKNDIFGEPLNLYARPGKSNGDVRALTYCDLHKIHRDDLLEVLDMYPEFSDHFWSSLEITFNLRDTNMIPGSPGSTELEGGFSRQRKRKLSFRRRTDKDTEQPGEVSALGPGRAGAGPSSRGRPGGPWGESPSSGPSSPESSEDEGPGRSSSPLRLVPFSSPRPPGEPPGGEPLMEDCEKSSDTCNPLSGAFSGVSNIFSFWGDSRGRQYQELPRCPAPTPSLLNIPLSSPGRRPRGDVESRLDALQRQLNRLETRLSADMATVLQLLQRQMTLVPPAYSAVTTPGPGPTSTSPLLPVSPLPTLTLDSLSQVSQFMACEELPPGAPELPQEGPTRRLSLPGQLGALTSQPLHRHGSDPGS

Point of comparison: `COc1cc(C(=O)Nc2ccc(S(=O)(=O)Nc3ncccn3)cc2)c([N+](=O)[O-])cc1OC`, “hERG current change (%, negative = inhibition) at 1uM” value 12%. Against it:
- O=C(CCC(=O)c1ccc(Cl)cc1)OCc1nc2ccsc2c(=O)[nH]1 — lower, 1.9%
- CCCCn1c(N)c(N(CCC(C)C)C(=O)C2CC(=O)N(c3ccc4c(c3)OCCO4)C2)c(=O)[nH]c1=O (stereo not drawn) — lower, -3.96%
- Cc1ccc(/C(O)=C2/C(=O)C(=O)N(c3ccccn3)C2c2cccc([N+](=O)[O-])c2)cc1 (stereo not drawn) — lower, 11.1%
- CSc1ccccc1-c1nnc(-c2ccc(C)cc2)o1 — lower, 7.28%
- CCN(CC)c1ccc(/C=N/n2c(=S)[nH]nc(C)c2=O)cc1 — lower, -4.27%
- C=CCN(c1ccccc1)S(=O)(=O)c1cccc(C(=O)Nc2nnc(SCC)s2)c1 — lower, 7.8%
- CC1=C(C#N)C(c2cccnc2)C2=C(CC(c3ccc(Cl)cc3)CC2=O)N1 (stereo not drawn) — lower, 9.05%
- Cc1nn(C)cc1/C=C/C(=O)c1ccc(O)cc1 — higher, 12.9%
- CCOC(=O)/C(C#N)=C/Nc1ccccc1OC(F)(F)F — lower, 4.69%
- O=S1(=O)CC2(N3CCOCC3)CCCCC21 (stereo not drawn) — lower, -6.93%
- Cc1cccc(C(=O)NCc2nnc(SCC(=O)NC3CCCC3)n2C)c1 — lower, 11.2%
- CCOC(=O)C1(Cc2cccc(OC)c2)CCN(Cc2ccc(OC)c(OC)c2)CC1 — lower, -24.9%
- COc1ccc(N2CCN(C(=O)CSc3nnc(-c4cc5ccccc5cc4O)n3C)CC2)cc1 — lower, -11.4%
- O=C(NCC(=O)N(c1cccc(F)c1)C(C(=O)NCC1CCCO1)c1ccccc1)c1ccco1 (stereo not drawn) — lower, 8.81%
- O=C(COc1ccc(Cl)cc1Cl)Nc1ccccc1F — higher, 14.6%
- CCOc1ccc(Oc2nc(NCC(C)C)nc(N(C)C)n2)nn1 — higher, 14%
- N/C(=N\OC(=O)CC1CCCCC1)c1ccncc1 — higher, 12.3%
- NS(=O)(=O)c1ccc(CCNC2CC(=O)N(Cc3ccccc3)C2=O)cc1 (stereo not drawn) — lower, 6.24%
- O=C1NC(=S)S/C1=C/c1ccc(Oc2cnccn2)cc1 — lower, 11.6%
- O=C(NNC(=O)C1CC(c2cccnc2)=NO1)Nc1ccccc1F (stereo not drawn) — lower, 7.04%
- COc1ccc(OC)c(N/C(N)=N/c2nc(C)cc(C)n2)c1 — lower, -26.5%
- CN(C)/C=C1\C(=O)ON=C1c1ccccc1 — lower, 3.76%
- O=C(Nc1ncccc1O)c1ccc(Cl)c(S(=O)(=O)N2CCCCCC2)c1 — lower, -23.1%
- CCN(Cc1ccc2c(c1)OCO2)C(=O)CSc1nc(C)nc2sc(C)c(C)c12 — lower, 4.61%
- O=C(CSc1nc(-c2cccs2)nc2ccccc12)NC1CCS(=O)(=O)C1 (stereo not drawn) — higher, 17.3%
- Cc1cc(NC(=O)Nc2cccs2)no1 — higher, 19.6%
- CC(=O)Nc1cc2nc(C)n(Cc3ccc([N+](=O)[O-])cc3)c2nc1C — higher, 14.2%
- CCOc1ccc(C2N(c3cc(C)on3)C(=O)C3CCCN32)cc1OC (stereo not drawn) — higher, 18.6%
- O=C(NNC(=O)c1cc(-c2ccccc2)nc2ccccc12)c1csc(N2CCOCC2)n1 — lower, 6.83%
- Cc1ccc(S(=O)(=O)c2nc(-c3ccccc3)oc2NCCN2CCOCC2)cc1 — lower, 4.83%
- Cc1nnc(SCc2cccc(Oc3ccccc3)c2)n1N — lower, -8.9%
- O=C(NNc1c(Cl)cc(Cl)cc1Cl)c1n[nH]c(=O)c2ccccc12 — lower, 1.45%
- CCCn1c(C(C)Nc2nc(-c3cc(Cl)c(N)c(Cl)c3)cs2)nc2cc(Cl)c(N3CCCCC3)cc21 (stereo not drawn) — lower, 7.78%
- CCc1noc(C)c1C(=O)Nc1ccccc1N1CCOCC1 — lower, -0.229%
- COc1ccc(NC(=O)CCS(=O)(=O)c2ccc3c(c2)CCCN3C(C)=O)cc1Cl — lower, 2.1%
- CCN(CC)CC#Cc1ccc(C)cc1.Cl — lower, 10.9%
- O=C1C(=O)N(c2ccccn2)C(c2ccc(F)cc2)/C1=C(/O)c1ccc(Br)cc1 (stereo not drawn) — lower, 10.2%
- COc1cccc(NC(=O)CN(C)S(=O)(=O)c2ccc(C)cc2)c1 — lower, 6.84%
- COc1ccc(OCc2cc(C(=O)N3CCCC3)no2)c2ccccc12 — lower, 9.48%
- Cc1ccc(S(=O)(=O)N2CCOCC2)cc1C(=O)NCC1CCCO1 (stereo not drawn) — lower, 10%
- COc1ccc(CC(=O)NCc2ccc3c(c2)cc(C)n3C)cc1 — higher, 12.4%
- COc1ccc(C2C=C(c3ccc(C)c(C)c3)Nc3ncnn32)c(OC)c1OC (stereo not drawn) — lower, 10.4%
- CSCc1ccc(C(=O)NCC(c2cccs2)N2CCOCC2)cc1 (stereo not drawn) — lower, 5.03%
- CN1CCN(NC(=O)c2cc(-c3ccccn3)nc3ccccc23)CC1 — lower, 10.3%
- C=CC(=O)N1c2ccccc2Sc2ccc(NC(=O)OCC)cc21 — lower, 8.8%
- CCC(CC)C(=O)Nc1cc(Cl)ccc1C — lower, 10.1%
- COc1ccc(CN(C)C(=O)c2ccc3c(=O)n4c(nc3c2)CCC4)cc1 — the same, 12%
- C=CC(C)(C)c1cc2cc3ccoc3cc2oc1=O — lower, 7.48%
- CN(C)S(=O)(=O)c1cccc(C(=O)OCC(=O)NCc2ccc3c(c2)OCO3)c1 — lower, 7.09%
- CCn1c2ccccc2c2cc(NC(=O)C3CCN(S(=O)(=O)c4cccs4)CC3)ccc21 — lower, 0.618%
- O=C(Cc1ccccc1)NNC1CC(=O)N(c2ccc(Oc3ccccc3)cc2)C1=O (stereo not drawn) — lower, 9.6%
- Cc1cc(C)cc(N(CC(=O)NCc2ccco2)S(=O)(=O)c2c(C)noc2C)c1 — lower, -14.8%
- CCCCCOc1ccc(N2C(=O)C(C)CNC2=S)cc1 (stereo not drawn) — lower, 9.07%
- CC1(C)c2[nH]c3ccccc3c2C[C@H]2C(=O)N(Cc3ccccc3F)C(=O)N21 — higher, 19.3%
- COc1ccc(NC(=O)CN2CCOCC2)cc1.O=C(O)C(=O)O — higher, 16.1%
- CCc1ccc(/C=N/NC(=O)c2nnn(-c3nonc3N)c2CN2CCOCC2)cc1 — lower, -2%
- O=C(O)CS(=O)(=O)CC(=O)NCc1cccc(C(F)(F)F)c1 — higher, 14.2%
- C=CCNC(=O)c1cc(Cl)ccc1[N+](=O)[O-] — higher, 16.8%
- COc1ccc(Cl)cc1C(=O)O/N=C(\N)c1ccncc1 — lower, 4.35%
- Cc1ccc(C)c(OCc2cc(C(=O)N3CCN(C(=O)c4ccco4)CC3)no2)c1 — lower, 5.61%
- O=C(NCc1ccccc1C(F)(F)F)C1CC(c2ccccc2[N+](=O)[O-])=NO1 (stereo not drawn) — lower, 7.13%
- CSc1nc2ncnc(N)c2[nH]1 — lower, 9.01%
- Cl.OC(CN1C2=NCCCN2c2ccccc21)c1ccc(Cl)cc1 (stereo not drawn) — lower, -76.2%
- COc1ccc(S(=O)(=O)NC(CC(=O)NCc2ccc3c(c2)OCO3)c2ccco2)cc1 (stereo not drawn) — higher, 13.4%
- Cc1cccc(NC(=O)Cn2c(=O)n(Cc3ccccc3)c(=O)c3c(C)c(C)sc32)c1 — lower, -2.93%
- COCCN(Cc1cn[nH]c1-c1ccc2cc(OC)ccc2c1)C(C)C — lower, -0.364%
- Cc1cccc(N(Cc2cc3cc(C)ccc3[nH]c2=O)C(=O)c2cccs2)c1 — lower, 8.85%
- O=C(NCc1ccncc1)c1ccc(Oc2ccccc2)cc1 — higher, 19%
- CCc1sc(C(=O)NCCCn2ccnc2)cc1Br — higher, 13.2%
- CC(=O)c1ccc(NC(=O)CCNS(=O)(=O)c2cccc3nonc23)cc1 — higher, 18.6%
- Cc1cc2cccc(C)c2nc1SCC(=O)NNC(=O)c1ccco1 — the same, 12%
- C#CCOC(=O)c1ccccc1C(=O)O — higher, 12.8%
- CC(C)(C)N1CC(OC(N)=O)C1 — higher, 17.2%
- O=C(c1cccc(N2C(=O)c3ccccc3C2=O)c1)N1CCCCCC1 — lower, 9%
- COc1ccc(C2CC(c3ccccc3)=NN2C(=O)COC(=O)CNC(=O)c2ccccc2)cc1 (stereo not drawn) — lower, -1.01%
- NC1=NC(=O)C(CC(=O)c2ccc(Cl)cc2)S1 (stereo not drawn) — lower, -1.2%
- CCOC(=O)C1=C(C)N=c2s/c(=C3/C(=O)Nc4ccccc43)c(=O)n2C1c1ccc(C)cc1 (stereo not drawn) — lower, 7.74%
- CCn1cnc2sc(C(=O)N(Cc3ccc(N(C)C)cc3)Cc3ccco3)c(C)c2c1=O — lower, -13.3%
- Cc1ccc(-c2nnn(CC(=O)N(Cc3cccs3)C(C(=O)NC3CCCC3)c3ccco3)n2)o1 (stereo not drawn) — lower, -5.62%
- CCCCc1cc(=O)oc2c(C)c(OCC(=O)N3CCC(C(N)=O)CC3)ccc12 — lower, 2.05%
- O=C(Nc1nccs1)c1ccc(COc2c(F)c(F)cc(F)c2F)o1 — lower, 4.86%
- COc1ccc(CNC(=O)CSc2nnc(Cn3nnc4ccccc43)n2C)cc1 — higher, 12.9%
- CC1CN(S(=O)(=O)c2cccc(C(=O)N(C)C3CCN(C)CC3)c2)CC(C)O1.Cl (stereo not drawn) — lower, 1.85%
- O=C(CCc1ccccc1)NCC(=O)N/N=C/c1ccc(O)cc1O — lower, 7.58%
- CC(=O)N1CCOCCOCCN(C(C)=O)CCOCCOCC1 — higher, 16.9%
- COc1cccc2cc(C(=O)OCc3ccccc3)c(=O)oc12 — higher, 14.9%
